According to the supplement of paper PMC4996465:
Counter-ions that a name gives are not always drawn. Viability of KB3-1 and Nalm-6 cells after 48 h of drug alone (CellTiter-Glo), 11 doses over about 4.5 log units. % of DMSO wells, lower = more cell loss; AC50 from the fitted curve, lower = more potent. No active / inactive call. Nalm-6 was screened in two runs. AC50 is listed only for well-fitted inhibitory curves. KB3-1 is a HeLa-derived carcinoma line, Nalm-6 a B-cell precursor leukaemia line.

What was measured:
Nalm-6 = assay: viability (% of DMSO control); higher = more viable cells
Experimental: (§1)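 Eleven-dose screen of the NCATS MIPE 3 library on cells without co-treatment; CellTiter-Glo after 48 h, as % of DMSO wells.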

KB3-1 = assay: as above
Experimental: as §1

Structure (SMILES) | viability (Nalm-6; run: 1, 0.00078 µM) | viability (Nalm-6; run: 1, 0.00234 µM) | viability (Nalm-6; run: 1, 0.00702 µM) | viability (Nalm-6; run: 1, 0.0211 µM) | viability (Nalm-6; run: 1, 0.0632 µM) | viability (Nalm-6; run: 1, 0.19 µM) | viability (Nalm-6; run: 1, 0.569 µM) | viability (Nalm-6; run: 1, 1.71 µM) | viability (Nalm-6; run: 1, 5.12 µM) | viability (Nalm-6; run: 1, 15.4 µM) | viability (Nalm-6; run: 1, 46.1 µM) | viability (Nalm-6; run: 2, 0.00078 µM) | viability (Nalm-6; run: 2, 0.00234 µM) | viability (Nalm-6; run: 2, 0.00702 µM) | viability (Nalm-6; run: 2, 0.0211 µM) | viability (Nalm-6; run: 2, 0.0632 µM) | viability (Nalm-6; run: 2, 0.19 µM) | viability (Nalm-6; run: 2, 0.569 µM) | viability (Nalm-6; run: 2, 1.71 µM) | viability (Nalm-6; run: 2, 5.12 µM) | viability (Nalm-6; run: 2, 15.4 µM) | viability (Nalm-6; run: 2, 46.1 µM) | viability (KB3-1; 0.00078 µM) | viability (KB3-1; 0.00234 µM) | viability (KB3-1; 0.00702 µM) | viability (KB3-1; 0.0211 µM) | viability (KB3-1; 0.0632 µM) | viability (KB3-1; 0.19 µM) | viability (KB3-1; 0.569 µM) | viability (KB3-1; 1.71 µM) | viability (KB3-1; 5.12 µM) | viability (KB3-1; 15.4 µM) | viability (KB3-1; 46.1 µM)
OC1=CC2=C(C(=C1)O)C(=O)\C(=C(/O2)C3=CC(=C(O)C=C3)O)O [Quercetine] | 98.4% | 118% | 120% | 114% | 111% | 125% | 117% | 127% | 126% | 113% | 58% | 105% | 103% | 109% | 102% | 115% | 113% | 109% | 111% | 106% | 99.9% | 59.7% | 106% | 107% | 101% | 103% | 109% | 110% | 107% | 109% | 113% | 105% | 37.1%
NC1(CCC1)C2=CC=C(C=C2)C3=C(C=C/4C(=N3)\C=C/N5C(=O)N\N=C45)C6=CC=CC=C6 [MK-2206] | 90.1% | 99.2% | 84.9% | 69.8% | 52.8% | 46.2% | 46.3% | 44.6% | 125% | 15.8% | -1.08% | 99.2% | 97.3% | 88.4% | 71.2% | 53.3% | 53.7% | 53.2% | 43.3% | 106% | 18.6% | -0.0729% | 96.1% | 97.3% | 95.3% | 90% | 88.6% | 88.4% | 91% | 87.3% | 110% | 85.8% | -0.434%
ClC1=C[NH]N=C1C\2NC(=N\C3=C2C(=O)CCC3)/NC4=NC5=CC=CC=C5O4 (stereo not given) | 68.4% | 92.2% | 91.4% | 103% | 105% | 120% | 115% | 109% | 111% | 84.8% | 69.1% | 94.6% | 95.5% | 98% | 106% | 108% | 104% | 110% | 116% | 98.3% | 106% | 70.1% | 97.3% | 103% | 103% | 100% | 102% | 103% | 106% | 105% | 109% | 109% | 91.3%
Cc1cc(Nc2cc(NC(=O)c3c(Cl)cccc3Cl)ccn2)nc(N)n1 [RO495] | 109% | 108% | 116% | 121% | 113% | 87.2% | 47% | 79.9% | 82.6% | 63.7% | 5.77% | 101% | 109% | 107% | 111% | 118% | 74.5% | 38.5% | 81.6% | 88.4% | 72.8% | 8.86% | 94.6% | 94.7% | 101% | 98.1% | 97.7% | 67.1% | 45.6% | 44% | 54.3% | 72.7% | 6.57%
C[C@@H]1CN(Cc2ccc(F)cc2)[C@@H](C)CN1C(=O)c1cc2c(C(=O)C(=O)N(C)C)cn(C)c2cc1Cl [Talmapimod] | 114% | 110% | 106% | 121% | 109% | 100% | 114% | 108% | 91.3% | 98.2% | 79.6% | 102% | 102% | 99.4% | 101% | 104% | 105% | 103% | 99.1% | 92.4% | 94.5% | 70% | 108% | 98.2% | 103% | 107% | 108% | 101% | 105% | 92.3% | 104% | 103% | 42.8%
CN[C@@H](C)C(=O)N[C@H]1CCCC[C@H]2CC[C@@H](C(=O)N[C@@H](c3ccccc3)c3cn(CCCCc4ccc(CCCCn5cc([C@@H](NC(=O)[C@@H]6CC[C@@H]7CCCC[C@H](NC(=O)[C@H](C)NC)C(=O)N76)c6ccccc6)nn5)cc4)nn3)N2C1=O [SM-164] | 94.6% | 96% | 96.6% | 92.6% | 51.2% | 89.4% | 91.4% | 72.8% | 83.3% | 70.5% | 64.6% | 94% | 98.1% | 92.6% | 88% | 87% | 96.2% | 80.5% | 88.7% | 89% | 77.7% | 70.9% | 79.2% | 72.4% | 73.9% | 70.2% | 70.1% | 61.9% | 62.8% | 69.7% | 66.3% | 73.4% | 0.426%
OC[C@H]1O[C@H](C[C@@H]1O)[N]2C=NC3=C2\N=C/NC[C@H]3O [Pentostatin] | 122% | 115% | 124% | 117% | 117% | 114% | 111% | 114% | 107% | 100% | 97.3% | 111% | 113% | 110% | 106% | 111% | 105% | 101% | 107% | 103% | 100% | 94.3% | 107% | 106% | 106% | 101% | 104% | 102% | 97.6% | 100% | 102% | 99.7% | 92.9%
CC1=CC=CC=C1N2\C(=N/C3=C(C(=CC=C3)C)C2=O)C[N]4C=NC5=C4N=CN=C5N |  |  |  |  |  |  |  |  |  |  |  |  |  |  |  |  |  |  |  |  |  |  | 105% | 109% | 111% | 109% | 110% | 113% | 107% | 111% | 111% | 104% | 85.6%
COC1=CC=CC(=C1/C2=N/CC3=C(N=C(NC4=CC(=C(C=C4)C(O)=O)OC)N=C3)C5=CC=C(Cl)C=C25)F [Alisertib] | 91.7% | 85.3% | 63.6% | 60.6% | 63.9% | 59.7% | 63.5% | 72.8% | 76.7% | 64.8% | 34.5% | 99.6% | 98.3% | 70.4% | 62.7% | 66.7% | 70.9% | 72% | 73.1% | 61% | 68.3% | 32.5% | 94.5% | 93.5% | 87.3% | 67.9% | 58.6% | 89.9% | 90.5% | 86.9% | 79.6% | 79.5% | 41.3%
C[N]1C2=C(SC(=C2)[S+](C)[O-])C\3=C1C(=O)N(CC4=CC(=CC=C4)N)\N=C3 (stereo not given) | 58.1% | 95.9% | 104% | 112% | 120% | 116% | 127% | 113% | 127% | 124% | 128% | 102% | 100% | 99.1% | 112% | 103% | 101% | 113% | 103% | 115% | 109% | 118% | 101% | 101% | 94.4% | 100% | 101% | 105% | 105% | 103% | 98.6% | 98% | 31.8%
CS(=O)(=O)c1ccc(C(=O)Nc2ccc(Cl)c(-c3ccccn3)c2)c(Cl)c1 [Vismodegib] | 94.8% | 101% | 103% | 102% | 110% | 100% | 110% | 108% | 113% | 115% | 97.5% | 104% | 89.4% | 100% | 99.3% | 105% | 110% | 99.1% | 107% | 108% | 114% | 102% | 96.7% | 96.1% | 92.8% | 95.1% | 96.2% | 103% | 93.7% | 104% | 96.1% | 98.3% | 86.4%
CCOc1ccc(Cc2cc([C@@H]3O[C@H](CO)[C@@H](O)[C@H](O)[C@H]3O)ccc2Cl)cc1 [Dapagliflozin] | 130% | 129% | 130% | 134% | 140% | 124% | 136% | 127% | 128% | 117% | 105% | 111% | 109% | 108% | 115% | 107% | 98.4% | 28.2% | 106% | 26.9% | -0.194% | 16% | 103% | 106% | 112% | 106% | 111% | 104% | 112% | 106% | 110% | 104% | 95.2%
CN(C)C(=N)NC(=N)N [Metformin HCl] | 106% | 108% | 111% | 107% | 117% | 114% | 118% | 116% | 111% | 113% | 108% | 104% | 112% | 106% | 101% | 110% | 110% | 112% | 109% | 105% | 109% | 109% | 102% | 101% | 102% | 103% | 103% | 105% | 104% | 103% | 110% | 105% | 103%
CC(C)(O)CCc1ccc(OCc2cc(-c3cccc(OC(F)F)c3)c3ncccc3c2)cc1 | 103% | 104% | 110% | 114% | 111% | 111% | 118% | 123% | 117% | 121% | 6.18% | 104% | 106% | 102% | 112% | 105% | 105% | 108% | 112% | 108% | 113% | 2.36% | 108% | 107% | 108% | 111% | 109% | 106% | 111% | 108% | 110% | 100% | 32.2%
